Laboratory results from ChEMBL document CHEMBL4888484, “Replenishing the malaria drug discovery pipeline: Screening and hit evaluation of the MMV Hit Generation Library 1 (HGL1) against asexual blood stage Plasmodium falciparum ,using a nano luciferase reporter read-out” (2022).
Screen size: about 150,000 compounds; about 540 (0.36%) showed an effect of 50% or more. The list shows a part of the results.

Each compound was assayed on Plasmodium falciparum (assay: Primary screen in NF54 nanoGlo assay, in single point, at 2uM, 72h; a lower Z score goes with more inhibition). Settings: timepoint 72 hour.
Format: functional, Erythrocyte
For `CC(C)c1ccc(CN2CCC[C@@]3(CCN(CCCn4cnnn4)C3)C2=O)cc1`, the “% Inhibition” value was -3% and the Z score was 0.31.
With `CC(C)Oc1ccccc1[C@H]1CC(=O)Nc2c1ncn2-c1cccnc1` the “% Inhibition” value was -11% and the Z score was 1.45.
`CCC[C@H](C)CN1CCCn2nc(CNC(=O)C3CCC3)cc2C1` was tested, and the “% Inhibition” value was -13% and the Z score was 2.22.
With `Cc1cccc(F)c1S(=O)(=O)NCC(F)(F)CO` the “% Inhibition” value was -15% and the Z score was 2.81.
`CC(C)(C)c1ccc([C@@H](CC(=O)NCc2ccc(F)cc2)c2c[nH]c3ccccc23)cc1` was tested, and the “% Inhibition” value was 6% and the Z score was -0.76.
With `Cc1ccccc1OCC(=O)NCc1ccc(-c2ccoc2)o1` the “% Inhibition” value was -15% and the Z score was 3.09.
With `Cc1cc(C)c(-c2c(-c3ccccc3)ncn2CCn2ccnc2)cc1C` the “% Inhibition” value was -7% and the Z score was 0.87.
`NS(=O)(=O)c1ccc(Cn2cnc(-c3ccccc3)c2-c2ccco2)cc1` was tested, and the “% Inhibition” value was 0% and the Z score was 0.07.
`CC(=O)N1CCN(c2c(C)cnc3c2c(=O)n(CC(=O)Nc2cc(C)ccc2C)c(=O)n3C)CC1` was tested, and the “% Inhibition” value was 0% and the Z score was -0.06.
For `Cc1ccc(C)c(S(=O)(=O)NCCC(=O)N2CCNC(=O)C2)c1`, the “% Inhibition” value was 2% and the Z score was -0.24.
For `O=C(NC1CCCCC1)N1Cc2nc[nH]c2C[C@H]1c1nc(-c2ccc3c(c2)OCO3)no1`, the “% Inhibition” value was 17% and the Z score was -2.7.
In the case of `Cc1cccc(Oc2nc(N3CCCCC3)nc3c2CN(S(=O)(=O)c2ccc(F)cc2)CC3)c1`, the “% Inhibition” value is reported as -6% and the Z score is reported as 0.94.
`Cc1nnsc1C(=O)N1C[C@@H]2CC[C@H]1CN(S(=O)(=O)N(C)C)C2` was tested, and the “% Inhibition” value was 28% and the Z score was -2.81.
In the case of `O=C(ON1C(=O)CCC1=O)c1ccc2noc(-c3ccccc3)c2c1`, the “% Inhibition” value is reported as -14% and the Z score is reported as 1.71.
In the case of `COc1ccc(NC(=O)CN2CCN(Cc3ccccc3C)S2(=O)=O)cc1Cl`, the “% Inhibition” value is reported as -1% and the Z score is reported as 0.23.
In the case of `CCc1ccccc1NC(=O)N1CCN(c2ccc(-c3noc(C4CCC4)n3)cc2)CC1`, the “% Inhibition” value is reported as -14% and the Z score is reported as 2.49.
With `Fc1ccc(OCc2nccc(-c3ccc4c(c3)OCO4)n2)cc1` the “% Inhibition” value was 32% and the Z score was -0.54.
`COc1cccc(C(=O)N2CCN(c3nc4ncccc4o3)CC2)c1` was tested, and the “% Inhibition” value was -3% and the Z score was 0.33.
`FC(F)[C@H](NCc1nnc(C2CC2)s1)c1ccccc1` was tested, and the “% Inhibition” value was 2% and the Z score was -0.43.
`COC1C(C)C(NS(=O)(=O)CCCN2CCOCC2)C1(C)C` (stereo not drawn) was tested, and the “% Inhibition” value was 3% and the Z score was -0.65.
For `CCc1nnc(NCc2ccc(C(=O)NC3CC3)cc2)c(C#N)c1CC`, the “% Inhibition” value was -12% and the Z score was 1.24.
In the case of `CCOc1cc(-c2nccn2-c2cncc(C(=O)O)c2)ccc1OC`, the “% Inhibition” value is reported as -5% and the Z score is reported as 0.59.
`Cc1nsc(N[C@@H](C)c2ncccc2F)n1` was tested, and the “% Inhibition” value was 33% and the Z score was -3.79.
For `CC(C)[C@H](NC(=O)c1ccc(Cl)cc1Br)C(=O)O`, the “% Inhibition” value was 12% and the Z score was -1.27.
For `CNc1nc(N2CCn3nc(CNC(=O)C4CCC4)cc3C2)ncc1F`, the “% Inhibition” value was -16% and the Z score was 2.78.
For `CN1CCN(CCC(=O)NCc2cccc(Cl)c2)C[C@H]1c1ccccc1`, the “% Inhibition” value was -16% and the Z score was 2.01.
In the case of `O=C(NCCOCCn1ccnc1)c1cncc(Br)c1`, the “% Inhibition” value is reported as -10% and the Z score is reported as 1.13.
With `CCCN1C[C@@H](NS(=O)(=O)c2cc(-n3cccn3)ccc2OC)CC1=O` the “% Inhibition” value was 6% and the Z score was -1.21.
With `Cc1cccc2ncc(C(=O)N[C@@]34COC[C@@H]3C4)n12` the “% Inhibition” value was -12% and the Z score was 1.31.
In the case of `O=C(C[C@H]1COCCN1C(=O)c1n[nH]c2ccccc12)c1ccco1`, the “% Inhibition” value is reported as -14% and the Z score is reported as 1.75.
`COc1ccc(-c2nnc(-c3cccs3)c3conc23)cc1` was tested, and the “% Inhibition” value was -41% and the Z score was 4.75.
With `CCN(CC)[C@H]1CCN(C2CCN(c3ccc(-n4ccnc4)cc3)CC2)C1` the “% Inhibition” value was 9% and the Z score was -1.14.
For `CCOC[C@H]1CCN(C(=O)c2nccc3[nH]ccc23)C1`, the “% Inhibition” value was 2% and the Z score was -0.32.
For `CCC(c1cccs1)N1C(=O)[C@H]2CN(C(=O)NC)C[C@H]2C1=O` (stereo partly drawn), the “% Inhibition” value was -12% and the Z score was 1.46.
`CCc1nnsc1C(=O)Nc1cc(C(F)(F)F)c[nH]c1=O` was tested, and the “% Inhibition” value was -3% and the Z score was 0.35.
For `CC(C)n1ccnc1CNc1cccc(C(=O)N2CCC[C@H](O)C2)c1`, the “% Inhibition” value was 10% and the Z score was -1.62.
For `CCCS(=O)(=O)Nc1cc(-c2cccs2)n[nH]1`, the “% Inhibition” value was -17% and the Z score was 3.09.
`CC(C)CCN1C(=O)CC[C@@H]2CN(C(=O)c3ccc(=O)[nH]n3)CC[C@@H]21` was tested, and the “% Inhibition” value was -11% and the Z score was 1.84.
`Cc1nc2ccc(NC(=O)Nc3ccc(F)cc3F)cc2s1` was tested, and the “% Inhibition” value was -9% and the Z score was 1.17.
With `O=C(c1nn[nH]c1Nc1ccccc1F)N1CCN(c2ccccc2)CC1` the “% Inhibition” value was -2% and the Z score was 0.23.
With `O=C(CCC1CCN(C(=O)C[C@H]2CCC(=O)N2)CC1)Nc1ccc2c(c1)OCCO2` the “% Inhibition” value was 10% and the Z score was -1.25.
`O=C(c1cc(C2CC2)nc2ccccc12)N1CCN(c2ncccn2)CC1` was tested, and the “% Inhibition” value was -8% and the Z score was 1.27.
`Cc1ccccc1NC(=O)[C@H]1CCn2c(nc3ccccc32)C1` was tested, and the “% Inhibition” value was -6% and the Z score was 0.57.
With `CC(C)(C)[C@H](CN1CCCC1)NC(=O)c1ccc(-c2cc(C#N)ccn2)cc1` the “% Inhibition” value was -7% and the Z score was 1.25.
`O=C(c1coc(-c2cccnc2)n1)N1CCCCC[C@@H]1Cc1ccccc1Cl` was tested, and the “% Inhibition” value was 2% and the Z score was -0.29.
For `CC(C)[C@@H]1CCO[C@@H]1CNC(=O)N1CCC(n2cc(C(N)=O)nn2)CC1`, the “% Inhibition” value was 12% and the Z score was -1.58.
With `Cn1nc2n(c1=O)CC[C@@H](NC(=O)c1cc(F)ccc1Cl)CC2` the “% Inhibition” value was -1% and the Z score was 0.2.
For `Cc1cc(=O)c(C(=O)N2CCc3nocc3C2)cn1C`, the “% Inhibition” value was -15% and the Z score was 1.42.
With `CCCS(=O)(=O)N1CCCc2cc(NS(=O)(=O)c3ccc(OCC)c(F)c3)ccc21` the “% Inhibition” value was 18% and the Z score was -2.3.
With `O=C(Nc1ccc2c(c1)cc(C(=O)Nc1ccccc1)n2Cc1ccc(C(F)(F)F)cc1)c1ccc(F)cc1` the “% Inhibition” value was -2% and the Z score was 0.42.
`CCN(C)C1=Nc2ccccc2Oc2ccc(NC(=O)COc3ccccc3)cc21` was tested, and the “% Inhibition” value was 3% and the Z score was -0.44.
With `Cc1c(C(=O)N(CCO)C(C)C)sc2ncnc(NCc3cc4ccccc4s3)c12` the “% Inhibition” value was 24% and the Z score was -3.36.
`CC[C@@H]1CN(c2nc3ccccc3s2)CC[C@]1(C)O` was tested, and the “% Inhibition” value was -1% and the Z score was 0.25.
In the case of `O=C(NCC1CC1)[C@H](C1CCCC1)N1CCN(C(=O)c2ccc(C(F)(F)F)cc2)CC1`, the “% Inhibition” value is reported as -9% and the Z score is reported as 0.83.
For `Cc1nnc(NCCc2ccc(F)cc2)[nH]c1=O`, the “% Inhibition” value was -3% and the Z score was 0.47.
For `Cn1nccc1-c1cccc(-c2nc3c(cc2C(N)=O)CCC3)c1`, the “% Inhibition” value was -6% and the Z score was 1.24.
In the case of `Cn1cc(CC(=O)NCc2ccccc2F)c2cccnc21`, the “% Inhibition” value is reported as -21% and the Z score is reported as 2.46.
In the case of `Cn1nc(C2CCCC2)cc1NC(=O)c1csnn1`, the “% Inhibition” value is reported as -11% and the Z score is reported as 1.45.
`CC(CCCO)NC(=O)NC1CCCC1c1ccc(F)cc1` (stereo not drawn) was tested, and the “% Inhibition” value was -19% and the Z score was 2.19.
`CC(C)(C)OC(=O)NCc1ccccc1-c1ncc[nH]1` was tested, and the “% Inhibition” value was 3% and the Z score was -0.37.
For `CCOc1cc(N2CCC[C@H]2C(=O)N(CC)CC)ncn1`, the “% Inhibition” value was -9% and the Z score was 0.79.
`CC(OC(=O)C(O)C(C)c1ccccc1)C(N)=O` (stereo not drawn) was tested, and the “% Inhibition” value was 3% and the Z score was -0.49.
In the case of `Cc1c(CN2CCC([C@]3(Cc4ccccc4Cl)NC(=O)N(CC4CC4)C3=O)CC2)cnn1C`, the “% Inhibition” value is reported as -1% and the Z score is reported as 0.29.
With `Cc1nc(O)cc(CCNC(=O)CCC(F)(F)F)n1` the “% Inhibition” value was 5% and the Z score was -0.98.
`c1coc(CNc2ncnc3c2CCCC3)c1` was tested, and the “% Inhibition” value was -5% and the Z score was 0.96.
For `CCc1cc(CNC(=O)N2CCN(CC(F)(F)F)[C@@H](C)C2)on1`, the “% Inhibition” value was -6% and the Z score was 0.79.
In the case of `CN(C(=O)OC(C)(C)C)[C@H]1CCCN(C(=O)c2ccn(C)c(=O)c2)C1`, the “% Inhibition” value is reported as 3% and the Z score is reported as -0.37.
With `CC(C1CC2CCC1C2)N1C(=O)NC(=O)C1=O` (stereo not drawn) the “% Inhibition” value was 2% and the Z score was -0.3.
In the case of `Cc1ccc(C(=O)N2CC(n3cnnc3C)C2)cn1`, the “% Inhibition” value is reported as 29% and the Z score is reported as -3.87.
For `C[C@H](NC(=O)C1CCN(S(C)(=O)=O)CC1)c1cccnc1`, the “% Inhibition” value was -4% and the Z score was 0.69.
In the case of `CCOc1cccc(CN(C)C[C@H](O)C2CC2)c1OC(F)F`, the “% Inhibition” value is reported as -5% and the Z score is reported as 0.61.
For `O=C(NCCOCc1ccc(Cl)cc1Cl)C1CCNCC1`, the “% Inhibition” value was -6% and the Z score was 0.83.
With `O=C1CCN(C(=O)CNC(=O)c2cccc(F)c2)CCN1` the “% Inhibition” value was -21% and the Z score was 2.61.
In the case of `CCO[C@@H](C)c1nc(CN(Cc2ccco2)C2CC2)cs1`, the “% Inhibition” value is reported as -6% and the Z score is reported as 0.77.
`COc1ccc(OC)c(CN2CCC([C@H](Cc3ccc(F)cc3F)N(C)C(=O)c3ccco3)CC2)c1` was tested, and the “% Inhibition” value was 4% and the Z score was -0.41.
In the case of `CO[C@H]1C[C@@H](O)C12CCN(C(=O)c1n[nH]c(-c3ccc(Cl)cc3)c1C)CC2`, the “% Inhibition” value is reported as 0% and the Z score is reported as 0.02.
With `O=C(Cc1cccs1)N1CC2(C[C@H](N3CCOCC3)CO2)C1` the “% Inhibition” value was -17% and the Z score was 1.99.
With `O=C(COc1ccc(Cl)cc1Cl)N1CCC(Oc2cccc3cccnc23)CC1` the “% Inhibition” value was -16% and the Z score was 3.05.
With `C=CCCS(=O)(=O)N1CC(N2CCN(CC)CC2)C1` the “% Inhibition” value was 18% and the Z score was -2.25.
`Cc1nc(C(=O)N2C[C@@H](F)C[C@H]2CO)c(C)o1` was tested, and the “% Inhibition” value was -9% and the Z score was 1.67.
`c1ccc2sc(-c3ccncc3)nc2c1` was tested, and the “% Inhibition” value was -14% and the Z score was 1.64.
`c1coc(-c2noc(CN3CCc4nocc4C3)n2)c1` was tested, and the “% Inhibition” value was 3% and the Z score was -0.4.
`CCNC(=O)CNc1nc(C(C)C)no1` was tested, and the “% Inhibition” value was -7% and the Z score was 1.02.
For `CC1(C)C[C@@](C)(c2ccccc2)c2ccccc2N1S(=O)(=O)c1ccc(Br)cc1`, the “% Inhibition” value was 5% and the Z score was -0.87.
